# The other results are listed elsewhere or left out.
# Biological target: T1, OsWOX13 (Oryza sativa, UniProt Q5QMM3 1-267)
# T1 sequence: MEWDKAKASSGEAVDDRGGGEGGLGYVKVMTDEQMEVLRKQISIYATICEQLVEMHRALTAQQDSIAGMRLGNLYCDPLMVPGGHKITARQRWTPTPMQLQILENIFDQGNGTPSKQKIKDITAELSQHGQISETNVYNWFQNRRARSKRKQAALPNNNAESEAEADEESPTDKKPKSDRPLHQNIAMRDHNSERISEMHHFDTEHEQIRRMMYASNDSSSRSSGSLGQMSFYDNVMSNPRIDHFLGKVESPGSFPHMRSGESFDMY
# Test: protein-binding microarray (RPBM); PBS, 2% BSA, 51.3 ng/ul salmon testes DNA, 50 uM zinc acetate, 200 nM TF, 25 C, 1 h; high values mean tight binding
# Settings: protein: recombinant; tags: N-terminal polyhistidine and DsRed monomer fusion (pET32a); label: CyDye5-dUTP incorporated in the synthesized complementary strand; 3' TTTTT single-stranded linker to array surface; dsDNA, one strand shown
# Outline: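 Binding signal here means per-feature fluorescence intensity in arbitrary units. The values were read on an Axon 4000B scanner after a custom Agilent array, double-stranded by primer extension with Cy5-dUTP, was incubated with 200 nM protein at 25 °C for 1 h in PBS with 2% BSA, salmon testes DNA and 50 µM zinc acetate, then washed. The proteins were transcription factors with an N-terminal polyhistidine tag and DsRed, expressed in E. coli BL21-CodonPlus and purified on Ni–NTA.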
row,Sequence,binding signal
1,CTTAATTAACTAATTAATGTAATTAAATTACTCCTGACAACGGAGTCACCTAGTGCAG,39900 fluorescence intensity (a.u.)
2,AATAATTAATAAAAGAGCGCGGGCCCACCACCCAACCCACCGGAGTCACCTAGTGCAG,15700 fluorescence intensity (a.u.)
3,GTCGACTGAAAAGGATTGACATTCCAAGCCTTTTCAGATTCGGAGTCACCTAGTGCAG,3580 fluorescence intensity (a.u.)
4,AGTAATTATTAATTCTTTTCGTATCATTTATATATTGTTACGGAGTCACCTAGTGCAG,12500 fluorescence intensity (a.u.)
5,TTTGATTGATGGCCATAAGTTGCCACACTTTGCCACACTTCGGAGTCACCTAGTGCAG,53800 fluorescence intensity (a.u.)
6,ATATGTTAATGAATTTAAACATATATATGTGTGTTTAGATCGGAGTCACCTAGTGCAG,3540 fluorescence intensity (a.u.)
7,GGAAAATGGAACCATAATGAATCCAGATTGGATGTGTGGGCGGAGTCACCTAGTGCAG,7440 fluorescence intensity (a.u.)
8,TATGATCATCTTGATGGAAAAGACGAACTCTGGTTTGATTCGGAGTCACCTAGTGCAG,5600 fluorescence intensity (a.u.)
9,TTTTAAACTAATACTTAATTAATCATATATTAATTAGGTACGGAGTCACCTAGTGCAG,19200 fluorescence intensity (a.u.)
10,CGTTGACTTTTCTAAACATGTTTGACCGTTCGTCTTATTCCGGAGTCACCTAGTGCAG,4780 fluorescence intensity (a.u.)
11,ATCCTCTTAATCTCTCATTGATTTAGGGTTTCGTGAGAATCGGAGTCACCTAGTGCAG,4030 fluorescence intensity (a.u.)
12,TTCACATGTAAATTTTAAATTTTGTATTGGATTTGGTCTTCGGAGTCACCTAGTGCAG,5140 fluorescence intensity (a.u.)
13,GCAAATTGACTTATAATATGAAATGGAAGGACTAACATCTCGGAGTCACCTAGTGCAG,23500 fluorescence intensity (a.u.)
14,AAAAGGATATGATTTGAAATGGCATTAAAGTGAATAGGCCCGGAGTCACCTAGTGCAG,4540 fluorescence intensity (a.u.)
15,TTGTCCTTGATTGCTATCTATCTTATATTCGAAGGAAGTTCGGAGTCACCTAGTGCAG,22300 fluorescence intensity (a.u.)
16,TGTACTGATGATGCAATTTACTTTATATTTATCAAGCATTCGGAGTCACCTAGTGCAG,5610 fluorescence intensity (a.u.)
17,GTCGTAGATTGACGGGAAGAGGAACCGGTGGTTGTGATGCCGGAGTCACCTAGTGCAG,41400 fluorescence intensity (a.u.)
18,TTGCTATTATTTGATTGATTTTAGGTCTCACAACGCCATCCGGAGTCACCTAGTGCAG,50000 fluorescence intensity (a.u.)
19,CTCATCAGTTGACCCCTGTCAATTTAGTGTGACTATGTGACGGAGTCACCTAGTGCAG,3380 fluorescence intensity (a.u.)
20,TATTAATTGAGAAAATTACAATAAAATGTAAGTCGTCAAACGGAGTCACCTAGTGCAG,38600 fluorescence intensity (a.u.)
21,GAAAATTAAACGGAACCTATATTTCCACCCAAATATAGGTCGGAGTCACCTAGTGCAG,5130 fluorescence intensity (a.u.)

row,Sequence,binding signal
1,CATGATTTCTCTCTCTGGCTTTTGAATTTGAACTAGTCCACGGAGTCACCTAGTGCAG,15900 fluorescence intensity (a.u.)
2,GTTGCCTCTTAATTTATGAGTGAATGATGTGGATAAATTTCGGAGTCACCTAGTGCAG,9080 fluorescence intensity (a.u.)
3,CCCAAATCAGCCCACAGTCAAACCGCGTCGTCTTCCTCCTCGGAGTCACCTAGTGCAG,4096 fluorescence intensity (a.u.)
4,TCAAATTACACTGATTTTAATAGTTGAGGGTCGAGATATCCGGAGTCACCTAGTGCAG,21900 fluorescence intensity (a.u.)
5,CATTAACAATTTACTTGGTTGACCACCTGAAAATCCTAGGCGGAGTCACCTAGTGCAG,3860 fluorescence intensity (a.u.)
6,GTGGGTGGTTGGTGGTGGTGGTGGTGGTGGTGATCTTTGGCGGAGTCACCTAGTGCAG,6950 fluorescence intensity (a.u.)
7,TCATGCAGTAATTAATCAGTGACAGTGAACCTTGTTAGTACGGAGTCACCTAGTGCAG,17400 fluorescence intensity (a.u.)
8,CTATAAATGGGCTGTAATGAATATATGTGTTTATTTGGAACGGAGTCACCTAGTGCAG,4810 fluorescence intensity (a.u.)
9,CGGCACACTGATTGGCTACCAACTGATTTGGCGGTGTTGGCGGAGTCACCTAGTGCAG,44200 fluorescence intensity (a.u.)
10,AGTCTGATTGGACATGGGATCAGGTATGTAACTTTACTTGCGGAGTCACCTAGTGCAG,50200 fluorescence intensity (a.u.)
11,CTATAATTGTGAAATTATCACACTAGGCTGTTTTCAGACACGGAGTCACCTAGTGCAG,23300 fluorescence intensity (a.u.)
12,GTGTGTATGACAGGTTGATGTGATAGAAAAGGACTAAAGTCGGAGTCACCTAGTGCAG,5220 fluorescence intensity (a.u.)
13,TTTATAATTTATATTTCAAGATGAATGTAGCATTATTCCACGGAGTCACCTAGTGCAG,11700 fluorescence intensity (a.u.)
14,TTTACTAGATTTATATTTGAAATACGTTTTACGAGCAAATCGGAGTCACCTAGTGCAG,5380 fluorescence intensity (a.u.)
15,CGCAATCATTACACAGACGTGGGGACTATACTATACTATACGGAGTCACCTAGTGCAG,6250 fluorescence intensity (a.u.)
16,TCTAATTTATAGTGCCATATTATATTTAGCATGAATTTAGCGGAGTCACCTAGTGCAG,11400 fluorescence intensity (a.u.)
17,AATCTTTCAATCTTCTTCACTCTTCAGTTTCTTTCATTCTCGGAGTCACCTAGTGCAG,4290 fluorescence intensity (a.u.)
18,AGTCTGATTTGCCTCCTCTCCCTCCTCCCCACTTCAAGATCGGAGTCACCTAGTGCAG,11700 fluorescence intensity (a.u.)
19,TGATTAATTAAGTATTAGCTAATTATTTTCATAAATGGATCGGAGTCACCTAGTGCAG,20300 fluorescence intensity (a.u.)
20,AGTAGACTGATCAGACTGATGTAGTATCATCCTCCTGGCCCGGAGTCACCTAGTGCAG,20000 fluorescence intensity (a.u.)
21,TCGTAGATTAACGTGCAAATGAAAATAGAGCTGATAGCCGCGGAGTCACCTAGTGCAG,6900 fluorescence intensity (a.u.)

# — PMC7819943, “Rice protein-binding microarrays: a tool to detect cis-acting elements near promoter regions in rice”
